Measurements as given in a collection of fitness landscapes (doi:10.1016/j.celrep.2020.107928).
Over roughly 81,000 sequences, “one-hybrid fitness for binding parS DNA” has its median near -0.17; the highest 2% begin near 0.51. This is one part of the list.

B1: Caulobacter ParB omega fusion; a variant is named by its letters at X, in order, B8GW30 (parent)
chain: MESVVVGEPGMSEGRRGLGRGLSALLGEVDAAPAQAPGEQLGGSREAPIEILQRNPDQPRRTFREEDLEDLSNSIREKGVLQPILVRPSPDTAGEYQIVAGERAWRAAQRAGLKTVPIMVRELDDLAVLEIGIIENVQRADLNVLEEALSYKVLMEKFERTQENIAQTIGKSXSHVANXMRLLXLPDEVQSYLVSGELTAXHARAIAAAADPVALAKQIIEGGLSVRETEALARKAPNLSAGKSKGGRPPRVKDTDTQALESDLSSVLGLDVSIDHRGSTGTLTITYATLEQLDDLCNRLTRGI

Variants of: B1
Assay: one-hybrid fitness for binding parS DNA (scaled: cognate 1, non-cognate 0); higher = stronger binding
Conditions: with parS DNA site
Method in brief: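 Pre- and post-selection plasmids were Illumina-sequenced, three replicate libraries were pooled, and any variant with under 10 reads was removed. The libraries were Caulobacter ParB with four specificity codons randomised, selected in E. coli USO through a HIS3 reporter whose site is 19 bp from the promoter. Cells grew 48 hours at 37°C on M9 without histidine, with 0.1 mM IPTG and 5 mM 3-AT. Fitness is the log change in variant-to-wild-type read ratio, rescaled against cognate and non-cognate.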

Row | Variant | one-hybrid fitness for binding parS DNA
1 | KRGH | ≤ 0.2
2 | RHLP | ≤ 0.2
3 | IDGW | ≤ 0.2
4 | DMFR | ≤ 0.2
5 | VGLR | ≤ 0.2
6 | RYLI | ≤ 0.2
7 | GMCG | ≤ 0.2
8 | NFYV | ≤ 0.2
9 | RDKH | ≤ 0.2
10 | FSSR | ≤ 0.2
11 | VSMW | ≤ 0.2
12 | ASLD | ≤ 0.2
13 | HHSF | ≤ 0.2
14 | IFER | ≤ 0.2
15 | RIRV | ≤ 0.2
16 | YRGY | ≤ 0.2
17 | TDDG | ≤ 0.2
18 | HHKW | ≤ 0.2
19 | CASY | ≤ 0.2
20 | QSHQ | ≤ 0.2
21 | TTKT | ≤ 0.2
22 | HTNF | ≤ 0.2
23 | HTQN | ≤ 0.2
24 | QNKM | ≤ 0.2

Row | Variant | one-hybrid fitness for binding parS DNA
25 | SELD | ≤ 0.2
26 | PDFR | ≤ 0.2
27 | CSLF | ≤ 0.2
28 | TTNC | ≤ 0.2
29 | DMCG | ≤ 0.2
30 | YLVH | ≤ 0.2
31 | KDKC | ≤ 0.2
32 | TMLE | ≤ 0.2
33 | AQES | ≤ 0.2
34 | TKLG | ≤ 0.2
35 | PKSI | ≤ 0.2
36 | RMPF | ≤ 0.2
37 | SSPK | ≤ 0.2
38 | AAAR | ≤ 0.2
39 | NTKS | ≤ 0.2
40 | QVCN | ≤ 0.2
41 | DLNR | ≤ 0.2
42 | HINP | ≤ 0.2
43 | TTAL | ≤ 0.2
44 | GAPF | ≤ 0.2
45 | MHRM | ≤ 0.2
46 | RYHN | 0.421
47 | QRVI | ≤ 0.2
48 | QDCT | ≤ 0.2

Row | Variant | one-hybrid fitness for binding parS DNA
49 | IMWC | ≤ 0.2
50 | RDGM | ≤ 0.2
51 | GPML | ≤ 0.2
52 | ANQG | ≤ 0.2
53 | CNTT | ≤ 0.2
54 | IVVM | ≤ 0.2
55 | AANF | ≤ 0.2
56 | ALFG | ≤ 0.2
57 | AEGL | ≤ 0.2
58 | YDLV | ≤ 0.2
59 | RAQA | 0.548
60 | WDKT | ≤ 0.2
61 | NFVE | ≤ 0.2
62 | QCTN | ≤ 0.2
63 | DPFG | ≤ 0.2
64 | TEGV | ≤ 0.2
65 | SNLS | ≤ 0.2
66 | IFSW | ≤ 0.2
67 | HFSK | ≤ 0.2
68 | CWNR | ≤ 0.2
69 | GVPR | ≤ 0.2
70 | ERAT | ≤ 0.2
71 | YRNT | ≤ 0.2
72 | QLSL | ≤ 0.2

Row | Variant | one-hybrid fitness for binding parS DNA
73 | HLVL | ≤ 0.2
74 | ANLG | ≤ 0.2
75 | SIYI | ≤ 0.2
76 | PKYR | ≤ 0.2
77 | ANTL | ≤ 0.2
78 | CSHS | ≤ 0.2
79 | QSML | ≤ 0.2
80 | RWEN | ≤ 0.2
81 | EWAS | ≤ 0.2
82 | TLQR | ≤ 0.2
83 | WYAT | ≤ 0.2
84 | RSEM | 0.246
85 | KMYC | ≤ 0.2
86 | AKVY | ≤ 0.2
87 | LSKE | ≤ 0.2
88 | LTWE | ≤ 0.2
89 | EIYC | ≤ 0.2
90 | EGTV | ≤ 0.2
91 | QIYN | ≤ 0.2
92 | QGKA | ≤ 0.2
93 | EYTP | ≤ 0.2
94 | LIHI | 0.217
95 | IQVG | ≤ 0.2
96 | TLMF | ≤ 0.2

Row | Variant | one-hybrid fitness for binding parS DNA
97 | KRHM | ≤ 0.2
98 | AFTR | ≤ 0.2
99 | WAMS | ≤ 0.2
100 | HCPW | ≤ 0.2
101 | LRKH | ≤ 0.2
102 | RELI | ≤ 0.2
103 | DYHN | ≤ 0.2
104 | GIAG | ≤ 0.2
105 | WVKS | ≤ 0.2
106 | DSTK | ≤ 0.2
107 | RNTV | ≤ 0.2
108 | KPQC | ≤ 0.2
109 | VSPC | ≤ 0.2
110 | FEVT | ≤ 0.2
111 | CTLT | ≤ 0.2
112 | RVYY | 0.495
113 | QTFI | ≤ 0.2
114 | MDSK | ≤ 0.2
115 | RNIM | ≤ 0.2
116 | SAHE | ≤ 0.2
117 | LYSL | ≤ 0.2
118 | LPAC | ≤ 0.2
119 | ELGG | ≤ 0.2
120 | HYCS | ≤ 0.2

Row | Variant | one-hybrid fitness for binding parS DNA
121 | EPHG | ≤ 0.2
122 | VMTC | ≤ 0.2
123 | QQGA | ≤ 0.2
124 | LYPK | ≤ 0.2
125 | AAEI | ≤ 0.2
126 | PVTY | ≤ 0.2
127 | LVDT | ≤ 0.2
128 | PGLC | ≤ 0.2
129 | NECV | ≤ 0.2
130 | RNWI | ≤ 0.2
131 | TRMT | ≤ 0.2
132 | HGTC | ≤ 0.2
133 | RQLI | ≤ 0.2
134 | HGNC | ≤ 0.2
135 | ASFQ | ≤ 0.2
136 | QMQV | ≤ 0.2
137 | AFQM | ≤ 0.2
138 | HKSL | ≤ 0.2
139 | QGTE | ≤ 0.2
140 | NWQS | ≤ 0.2
141 | TTDR | ≤ 0.2
142 | RICN | 0.447
143 | NINA | ≤ 0.2
144 | RMVN | 0.422

Row | Variant | one-hybrid fitness for binding parS DNA
145 | VTQS | ≤ 0.2
146 | VALP | ≤ 0.2
147 | PPCT | ≤ 0.2
148 | QVYF | ≤ 0.2
149 | KRGS | ≤ 0.2
150 | CNTM | ≤ 0.2
151 | RTQF | 0.213
152 | VYKR | ≤ 0.2
153 | MPGT | ≤ 0.2
154 | STTN | ≤ 0.2
155 | RSWW | ≤ 0.2
156 | YMAC | ≤ 0.2
157 | KEEG | ≤ 0.2
158 | QHID | ≤ 0.2
159 | IMYS | ≤ 0.2
160 | SRLW | ≤ 0.2
161 | HTNN | ≤ 0.2
162 | ACKT | ≤ 0.2
163 | ITCL | ≤ 0.2
164 | APKA | ≤ 0.2
165 | QAAQ | ≤ 0.2
166 | GSYR | ≤ 0.2
167 | TRKL | ≤ 0.2
168 | NPHR | ≤ 0.2

Row | Variant | one-hybrid fitness for binding parS DNA
169 | NMRL | ≤ 0.2
170 | RKPQ | ≤ 0.2
171 | VIKC | ≤ 0.2
172 | LWDG | ≤ 0.2
173 | DQLF | ≤ 0.2
174 | CITL | ≤ 0.2
175 | QMLW | ≤ 0.2
176 | DCPC | ≤ 0.2
177 | RYAL | ≤ 0.2
178 | ARRR | ≤ 0.2
179 | QTPD | ≤ 0.2
180 | RMFW | 0.274
181 | MVRA | ≤ 0.2
182 | CHMG | ≤ 0.2
183 | LRKI | ≤ 0.2
184 | RRAW | ≤ 0.2
185 | DYVS | ≤ 0.2
186 | KGGT | ≤ 0.2
187 | LASG | ≤ 0.2
188 | GTLS | ≤ 0.2
189 | YRTN | ≤ 0.2
190 | TRPQ | ≤ 0.2
191 | KNPR | ≤ 0.2
192 | QQII | ≤ 0.2

Row | Variant | one-hybrid fitness for binding parS DNA
193 | QKAH | ≤ 0.2
194 | RRRV | ≤ 0.2
195 | RTDF | ≤ 0.2
196 | SSNA | ≤ 0.2
197 | KRAM | ≤ 0.2
198 | KTKG | ≤ 0.2
199 | KSEI | ≤ 0.2
200 | PLLR | ≤ 0.2
201 | LYPL | ≤ 0.2
202 | NQDS | ≤ 0.2
203 | QQQP | ≤ 0.2
204 | GQQR | ≤ 0.2
205 | YFLW | ≤ 0.2
206 | SELM | ≤ 0.2
207 | RYWT | 0.787
208 | IRSI | ≤ 0.2
209 | YSLM | ≤ 0.2
210 | GRAY | ≤ 0.2
211 | GELN | ≤ 0.2
212 | KPGV | ≤ 0.2
213 | GLEC | ≤ 0.2
214 | WLTK | ≤ 0.2
215 | TIVT | ≤ 0.2
216 | EEPA | ≤ 0.2

Row | Variant | one-hybrid fitness for binding parS DNA
217 | VTVI | ≤ 0.2
218 | VKLA | ≤ 0.2
219 | NVSR | ≤ 0.2
220 | PYTQ | ≤ 0.2
221 | PART | ≤ 0.2
222 | TTPP | ≤ 0.2
223 | IEGG | ≤ 0.2
224 | KRFY | ≤ 0.2
225 | EDVN | ≤ 0.2
226 | QYSG | ≤ 0.2
227 | PQHW | ≤ 0.2
228 | THRD | ≤ 0.2
229 | SSTM | ≤ 0.2
230 | ILPR | ≤ 0.2
231 | WHKM | ≤ 0.2
232 | GNQC | ≤ 0.2
233 | HVQN | ≤ 0.2
234 | KDNI | ≤ 0.2
235 | IATV | ≤ 0.2
236 | AKGS | ≤ 0.2
237 | YLAR | ≤ 0.2
238 | SEPY | ≤ 0.2
239 | SRNC | ≤ 0.2
240 | SRGV | ≤ 0.2

Row | Variant | one-hybrid fitness for binding parS DNA
241 | VRPE | ≤ 0.2
242 | IDVR | ≤ 0.2
243 | EGSD | ≤ 0.2
244 | PQFT | ≤ 0.2
245 | CRRV | ≤ 0.2
246 | EKRS | ≤ 0.2
247 | RAGI | ≤ 0.2
248 | VYLK | ≤ 0.2
249 | HVMS | ≤ 0.2
250 | RFNF | ≤ 0.2
251 | CPHV | ≤ 0.2
252 | LTKH | ≤ 0.2
253 | HASW | ≤ 0.2
254 | LRKN | ≤ 0.2
255 | NDNT | ≤ 0.2
256 | GARP | ≤ 0.2
257 | GWAG | ≤ 0.2
258 | NCAN | ≤ 0.2
259 | DVRR | ≤ 0.2
260 | PPLG | ≤ 0.2
261 | HRYI | ≤ 0.2
262 | WTAA | ≤ 0.2
263 | CQSC | ≤ 0.2
264 | TIID | ≤ 0.2

Row | Variant | one-hybrid fitness for binding parS DNA
265 | FLPN | ≤ 0.2
266 | ASMT | ≤ 0.2
267 | CHRI | ≤ 0.2
268 | LNSK | ≤ 0.2
269 | QLWW | ≤ 0.2
270 | QQMA | ≤ 0.2
271 | TFPA | ≤ 0.2
272 | SPHP | ≤ 0.2
273 | NIIY | ≤ 0.2
274 | TASY | ≤ 0.2
275 | TAGH | ≤ 0.2
276 | SDHQ | ≤ 0.2
277 | CMIT | ≤ 0.2
278 | EFVT | ≤ 0.2
279 | SSTR | ≤ 0.2
280 | THQR | ≤ 0.2
281 | RKQH | ≤ 0.2
282 | YVPT | ≤ 0.2
283 | DVPM | ≤ 0.2
284 | GTKV | ≤ 0.2
285 | CVFW | ≤ 0.2
286 | QNLM | ≤ 0.2
287 | GPHD | ≤ 0.2
288 | MGSD | ≤ 0.2

Row | Variant | one-hybrid fitness for binding parS DNA
289 | CGLG | ≤ 0.2
290 | VASS | ≤ 0.2
291 | ALWG | ≤ 0.2
292 | LRHY | ≤ 0.2
293 | GMPS | ≤ 0.2
294 | IKVE | ≤ 0.2
295 | YMPM | ≤ 0.2
296 | RLDL | ≤ 0.2
297 | QPPW | ≤ 0.2
298 | TQPY | ≤ 0.2
299 | NLHT | ≤ 0.2
300 | MAYR | ≤ 0.2
301 | AMLR | ≤ 0.2
302 | SWIL | ≤ 0.2
303 | RIWE | ≤ 0.2
304 | PLNF | ≤ 0.2
305 | PWQA | ≤ 0.2
306 | AKMV | ≤ 0.2
